Source: PubChem BioAssay AID624202 (National Center for Advancing Translational Sciences (NCATS), 2012)
About 4,000 (1.1%) of roughly 380,000 compounds were called active. Inconclusive results, whose numbers are uncertain, are shown with a selection of clear calls. Calls follow the shape of the dose curve; as a rule, active = well fitted activation curve with a large enough effect; inconclusive = small, poorly fitted or top-dose-only effect; inactive = no such curve, though single readings can be large or run the other way. Where the call is inconclusive, the potency comes from a doubtful curve fit.

assay: qHTS Assay to Identify Small Molecule Activators of BRCA1 Expression; details: MCF7-BRCA1-FFLuc reporter, luminescence, 48 h; activation: at 46.1 µM (top of the series), scaled: vehicle 0%, 10 µM genistein 100% unless noted; also: nearly all actives have a fitted effect of over 80% in size
Outline: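 Luminescence from a BRCA1-driven firefly luciferase in MCF7 cells was the read-out, taken 15 min after substrate addition following 48 h compound exposure at 37 °C. Data were normalized to a 10 microM genistein control and DMSO vehicle.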
Potency is read from the fitted curve at half-maximal effect; tags tell the direction and shape of the fitted curve.

SMILES | Potency | activation
Nc1[nH][nH]c(=O)c1N=Nc1ccc2c(c1)OCO2 | active: 12.6 µM | –
CCCN=Cc1sc2ccc(OCC)cc2c1O | inconclusive: 6.31 µM [activator, partial curve, poor fit] | –
COc1cccc(COc2ccc3c(C)cc(=O)oc3c2)c1 | active: 2.82 µM | –
Nc1nc2c(nnn2C2CC(O)C(CO)O2)c(=O)[nH]1 (stereo unspecified) | inactive | –
Clc1ccc(-c2nnc(CCc3ccccc3)o2)c(Cl)c1 | active: 11.2 µM | –
c1ccc2oc(-c3ccn[nH]3)cc2c1 | active: 4.47 µM | –
CCN1CCN(C(=O)c2cc(S(=O)(=O)N3CCCCC3)ccc2Cl)CC1 | inactive | –
COc1cc(Cl)ccc1OC1(C)CCN(Cc2ccc(-c3ccccn3)cc2)C1 (stereo unspecified) | inactive | –
CC(C)c1cc(C(=O)N/N=C/c2ccco2)n[nH]1 | inconclusive: 11.2 µM [activator, partial curve, poor fit] | –
CN(C)/C=N/c1cnc(C(=O)c2ccc(Cl)cc2)n1C | inconclusive: 1.58 µM [activator, partial curve, poor fit] | –
Cc1cc(C(=O)Nc2sc3c(c2C#N)CCCCC3)cs1 | inconclusive: 3.16 µM [activator, partial curve, poor fit] | –
CCc1nc2ccc(C(=O)Nc3cc(-c4ccccc4)ccc3OC)cn2c1N(C)C(=O)c1cccc(OC)c1 | inactive | –
CC(C)c1ccc(C(=O)NCc2ccc(Cl)cc2)cc1 | inconclusive: 11.2 µM [activator, partial curve, poor fit] | –
CN(c1ccccc1)S(=O)(=O)c1ccc(Cl)c(C(=O)Nc2ccc(-c3nc4ccccc4[nH]3)cc2)c1 | inactive | –
Cn1cccc1C(=O)OCC(=O)c1ccc(Br)s1 | active: 8.91 µM | –
CCc1nc(SCc2ccc(F)cc2)n[nH]1 | inconclusive: 31.6 µM [activator, single point] | –
O=C(N/N=C/c1ccc(Br)s1)c1ccccn1 | inconclusive: 1.12 µM [activator, full curve, poor fit] | –
CCOC(=O)c1ccc(N2C(=O)c3n[nH]c(-c4ccco4)c3C2c2cccc([N+](=O)[O-])c2)cc1 (stereo unspecified) | inactive | –
CCS/C(N)=N/N=C/c1cc(C)ccc1O | – | inconclusive: 4.67% [activator]
CC1CN(C(=O)CCC(=O)NCCCN2CCN(Cc3ccccc3)CC2)c2cc(Cl)ccc2O1 (stereo unspecified) | inactive | –
CC(=O)CCc1ccc(OCC(O)CNCCOc2ccc(C)cc2)cc1 (stereo unspecified) | inactive | –
Cn1c(=O)c2c(nc(SCCN3CCOCC3)n2Cc2ccc(F)cc2)n(C)c1=O | inconclusive: 10 µM [activator, partial curve, poor fit] | –
CCOC(=O)N/N=C(\C)c1ccc(Br)cc1 | inconclusive: 12.6 µM [activator, partial curve, poor fit] | –
CCc1ccccc1NC(=O)c1nc2nc(C)cc(C(F)F)n2n1 | inactive | –
Oc1c(Br)cc(/C=N/Nc2nncc3ccccc23)cc1Br | active: 8.91 µM | –
O=C(Nc1ccc(NC(=O)C2CC2)cn1)c1ccccc1 | – | inconclusive: 74.8% [activator]

SMILES | Potency | activation
Cc1ccc(C(=O)NCC(=O)N2CCC(Cc3ccccc3)CC2)cc1 | inactive | –
O=C(Nc1ccccc1Br)c1cc(=O)c2ccccc2o1 | inconclusive: 7.08 µM [activator, partial curve, poor fit] | –
COc1ccc(-c2cc3nc4ccccc4n3c(N)c2C#N)cc1 | active: 3.98 µM | –
Nc1ncnc2c1cnn2-c1ccccc1 | inconclusive: 14.1 µM [activator, partial curve, poor fit] | –
CC(C)C(=O)Nc1nnc(NC(=S)Nc2ccccc2)s1 | active: 10 µM | –
CCN(CC)c1ccc2cc(C(N)=O)c(=O)oc2c1 | inconclusive: 17.8 µM [activator, partial curve, poor fit] | –
O=C(Nc1cccc(Cl)c1)c1ccc2ncsc2c1 | inconclusive: 0.631 µM [activator, full curve, poor fit] | –
CCC(C(=O)OCC(=O)c1c(N)n(CC(C)C)c(=O)n(C)c1=O)c1ccccc1 (stereo unspecified) | inactive | –
C[C@@H](CO)NC(=O)c1ccc2c3n(nc2c1)-c1ccc(Cl)cc1CO3 | inconclusive: 2.24 µM [activator, partial curve, poor fit] | –
O=C(Nc1ccc(Cl)cc1Cl)C1=Cc2ccccc2OC1 | active: 10 µM | –
O=C(O)c1cc(-c2ccc(Br)s2)nc2ccccc12 | inconclusive: 35.5 µM [activator, single point] | –
COc1ccc(CC(=O)c2ccc(O)cc2O)cc1 | inconclusive: 15.8 µM [activator, partial curve, poor fit] | –
N/C(=N\OC(=O)/C=C/c1ccc(Br)cc1)c1ccccn1 | inconclusive: 1.58 µM [activator, partial curve, poor fit] | –
Cc1c(-c2nc3ccccc3[nH]2)cnn1C | inactive | –
Cc1ccc(N=Nc2c(N)n[nH]c2N)cc1 | active: 10 µM | –
CCOc1ccccc1OCC(=O)NNC(=O)Cn1cnc2c1c(=O)n(C)c(=O)n2C | inactive | –
COc1ccccc1N1CCN(/N=C\c2sccc2C)CC1 | inconclusive: 7.08 µM [activator, partial curve, poor fit] | –
O=C(NCc1c(F)cccc1F)c1cc(COc2c(F)cccc2F)on1 | inconclusive: 35.5 µM [activator, single point] | –
COC(=O)c1ccccc1NC(=O)Cn1cc2c(n1)CCC(C)C2 (stereo unspecified) | inactive | –
Cn1cccc1C(=O)N/N=C/c1c(Cl)cccc1Cl | active: 6.31 µM | –
Cc1ccc(Nc2nc(CSc3nnc(-c4ccccc4)n3C)cs2)cc1 | active: 3.55 µM | –
CN(C)c1ccc(C2NC(=O)c3ccccc3N2)cc1 (stereo unspecified) | inconclusive: 3.16 µM [activator, partial curve, poor fit] | –
O=C(Cc1ccccc1)c1ccc(O)cc1 | active: 11.2 µM | –
CCOC(=O)C1CCN(C(=O)c2sc3nc(C)nc(N4CCC(C)CC4)c3c2C)CC1 | inactive | –
CN1CCN(C(=S)NCCc2ccccc2)CC1 | inconclusive: 25.1 µM [activator, single point] | –
